This is one part of the list. At the low end of the ranking the order means little.

This assay deals with T1, GST-NbGlk1(82-244).
T1 sequence: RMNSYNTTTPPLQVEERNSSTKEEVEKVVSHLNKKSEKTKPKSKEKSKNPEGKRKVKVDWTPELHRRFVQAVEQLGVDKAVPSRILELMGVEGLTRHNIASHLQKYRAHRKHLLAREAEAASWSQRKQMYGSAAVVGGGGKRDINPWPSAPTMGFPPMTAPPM
Nature of the assay: protein-binding microarray.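 Also: rank-based score ranging −0.5 to +0.5 with E above 0.45 taken as significant binding.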 The note with it: NbGlk1 is a Golden2-like transcription factor of Nicotiana benthamiana; high values mean tight binding; most listed sequences are background and not binding sites; double strand, one strand shown.
Turning to ACGGACGC, the binding signal was -0.211 E-score. As for AGGCGGGA, the figure is -0.12 E-score; as for CAAAGTAA, 0.0718 E-score. In turn, ACCGGCCT gave a binding signal of -0.204 E-score. In turn, AGAGCGCA displayed a binding signal of -0.123 E-score. For the sequence ATACAAAG, the binding signal is -0.0425 E-score. Under AGCTTATC stands -0.0676 E-score; under ACGTTGCA, 0.0856 E-score; under ATAACTTA, 0.0874 E-score. Under AAGTGCAC stands -0.126 E-score; under AAAAATCT, 0.45 E-score; under AGTCGCCA, -0.299 E-score. Under AGACAAAC stands -0.033 E-score; under AAGACGCG, -0.063 E-score; under ACGGCTCA, -0.206 E-score. In turn, AAAGTTCC registered a binding signal of -0.0954 E-score. With ACGGCATC, the binding signal was -0.0334 E-score. As for ATGGAATA, the figure is 0.111 E-score; as for ATTCCGGG, 0.182 E-score; as for ACTATATC, 0.142 E-score.

The sequence AACACGTT yielded a binding signal of -0.194 E-score. Under AAGATAAC stands 0.0468 E-score; under AACTATCG, -0.0442 E-score; under CAACTCTG, -0.0558 E-score.

In turn, ATTAGAGA yielded a binding signal of 0.0726 E-score.

For the sequence ACTCGCTC, the binding signal is -0.112 E-score. As for AAAATACG, the figure is 0.286 E-score.

The sequence ACCGTTAA came in with a binding signal of 0.0829 E-score. Under AAGACCGT stands -0.0777 E-score; under CACCAGAC, -0.194 E-score; under AGCGACAG, -0.0398 E-score. As for ATTCTGTA, the figure is 0.271 E-score. As for AAACGTAA, the figure is 0.0718 E-score. Consider ACCCGATG, for which the binding signal is -0.186 E-score. As for AGATTTGG, the figure is 0.394 E-score. Under AGGGATAC stands 0.168 E-score. Under AGGTTGAT stands -0.0415 E-score. In turn, CACCGTCG showed a binding signal of -0.212 E-score. As for AGGCACGC, the figure is -0.11 E-score.

As to ACATTTCA, the binding signal is 0.0402 E-score. Under CACCGTAA stands 0.122 E-score; under AACAGGGA, -0.155 E-score; under ATGGTTTA, 0.0425 E-score. As for ACGGTAGG, the figure is -0.0738 E-score. As for AAGCATCG, the figure is -0.0212 E-score. In the case of CAGCACGA, the binding signal is -0.0353 E-score. Under CACAGAAG stands -0.0289 E-score; under AGATTCAG, 0.238 E-score. Under AGAGTTTG stands 4.26e-06 E-score; under AATAGCAC, -0.105 E-score. As for AAGCCATG, the figure is -0.164 E-score; as for ACCAGCAA, 0.0679 E-score. In turn, ATGGTTCG came in with a binding signal of -0.0962 E-score.

Regarding ATATGCGC, the binding signal is 0.177 E-score.

ACATACAA: the binding signal amounted to 0.181 E-score. Under AGGCAGCG stands -0.197 E-score.

Regarding AAAGTCCT, the binding signal was -0.264 E-score. Under AAGCAGAA stands 0.118 E-score; under AATCTCCA, 0.389 E-score.

In turn, AATTCCAG registered a binding signal of 0.0413 E-score. Under AATGGCGC stands -0.0578 E-score; under ACGGTCCA, -0.177 E-score.

For the sequence ATGCGAAA, the binding signal worked out at 0.16 E-score. Under AAGACGTG stands -0.0718 E-score; under AAGGTTCA, -0.0932 E-score; under CACGCCCG, -0.144 E-score. As for AGGTATGG, the figure is -0.149 E-score; as for AGTCCCAA, -0.0799 E-score. Under ACGGATCC stands 0.198 E-score. The sequence AGACCTCA displayed a binding signal of -0.294 E-score. As for ACTTATCT, the figure is 0.152 E-score; as for ACTCCACT, -0.177 E-score. As for AGTTCTCG, the figure is -0.206 E-score; as for ATGTGCCC, -0.132 E-score. Under CAAGGCGA stands -0.129 E-score; under ACCCGCTG, -0.182 E-score; under ATCGTCCG, 0.147 E-score. The sequence CACACCTC displayed a binding signal of -0.0197 E-score. Under AGATAAGG stands 0.0581 E-score; under ACCCGAAT, 0.17 E-score; under CAGATCTG, 0.38 E-score. Sequence AAAATTGC displayed a binding signal of 0.104 E-score.

AACAAGCG came in with a binding signal of -0.0394 E-score. ATCCAGTG showed a binding signal of 0.221 E-score.

CAAGTGTC displayed a binding signal of -0.139 E-score. Regarding AGTAAACA, the binding signal is -0.143 E-score. Regarding ACCCCAAA, the binding signal was -0.099 E-score.

As to ACCCTATA, the binding signal was 0.0308 E-score. Consider ATGGCTGA, for which the binding signal was -0.117 E-score.

With AAGTAGCA, the binding signal is -0.0251 E-score. As for ACAGCAGT, the figure is -0.25 E-score. As for ATGCACCA, the figure is 0.0187 E-score. As for ACTCGGCT, the figure is -0.11 E-score. On to AAACATAT, for which the binding signal came to 0.113 E-score. Under AAATTACG stands 0.317 E-score. In turn, ACACCAAT showed a binding signal of -0.00147 E-score. Under AATCGTGG stands 0.286 E-score; under ACTTGCTG, -0.039 E-score; under ATCCACAG, 0.192 E-score.

In turn, ACTTAAGG showed a binding signal of -0.122 E-score.

AGAATACA: the binding signal was determined as 0.0913 E-score.

Take AAATCGTC: the binding signal amounted to 0.354 E-score. As for AAAGGTCC, the figure is -0.27 E-score; as for ACAAAGTG, -0.0272 E-score. Under ACCTGTAG stands -0.101 E-score; under AACCTATA, -0.0739 E-score; under AATTGCCT, -0.0441 E-score. Under AATTGGGC stands -0.189 E-score. The sequence AGAGTTGA gave a binding signal of -0.161 E-score. As for AAGGGTAA, the figure is -0.0144 E-score; as for AAAACCTT, 0.0251 E-score.

Take AAAATTCT: the binding signal was determined as 0.195 E-score.

AGTGCTGG yielded a binding signal of -0.0693 E-score. Under AGAAGCTG stands -0.0242 E-score.

As for AAAAAAGG, the binding signal was -0.0292 E-score. Under ACTCTCTG stands -0.1 E-score. As for ATGCACTG, the figure is -0.0208 E-score; as for ACGTACCT, -0.12 E-score. As for AGTTCCCG, the figure is -0.186 E-score; as for AATTACAT, 0.173 E-score; as for ACGGGACT, -0.201 E-score.

The sequence AGCGTAGC showed a binding signal of -0.195 E-score. As for AGTAAAAC, the figure is 0.0902 E-score. With ATATAGAG, the binding signal is 0.231 E-score.

Take ACGAGATA: the binding signal came out at 0.275 E-score. For the sequence ACGCCACT, the binding signal was -0.206 E-score.

For ATTCGACC, the binding signal was -0.089 E-score.

CAGCGCGC returned a binding signal of -0.109 E-score.

ACTTTAGG displayed a binding signal of -0.11 E-score.

On to AGGTGGCA, for which the binding signal was -0.233 E-score.

Sequence AGCAGCCA showed a binding signal of -0.165 E-score.

In turn, CACTTTGC yielded a binding signal of -0.101 E-score. AGCCCGTG registered a binding signal of -0.182 E-score.

CAAGCATG showed a binding signal of -0.158 E-score. As for ACCACCTG, the figure is -0.183 E-score.

In the case of AGTTTGAC, the binding signal was -0.0264 E-score. Under ACACAAAT stands 0.204 E-score; under ACTTACCA, 0.00853 E-score. As for ACACGCGG, the figure is -0.222 E-score; as for AATCGGGG, 0.327 E-score. In the case of ATTTCAGC, the binding signal stood at 0.188 E-score.

ATTTTCCG returned a binding signal of 0.332 E-score.

CAATGCGA gave a binding signal of -0.0546 E-score.

Regarding AAGTATCA, the binding signal was determined as 0.151 E-score.

Turning to ATAATGAC, the binding signal was determined as 0.12 E-score. AGAACGGC gave a binding signal of -0.166 E-score. Under ATCATAAA stands 0.232 E-score; under AAAATCTG, 0.478 E-score. As for AATTGTCA, the figure is -0.0837 E-score; as for CAAGGCCC, -0.247 E-score; as for AAGGCCGC, -0.28 E-score. As for ACTGGCAC, the figure is -0.39 E-score; as for AATAAACA, 0.0909 E-score; as for AAGTCCCC, -0.237 E-score. ATCTTTCA registered a binding signal of 0.247 E-score. Under ATGCCCGA stands -0.0881 E-score; under ACCGTTTA, 0.0592 E-score. Under ACGTGGTG stands -0.271 E-score; under CAAGTCAA, -0.112 E-score; under ATCAAAGA, 0.166 E-score. Under ATTTTGCA stands 0.238 E-score. Sequence ATCCCCCA displayed a binding signal of 0.168 E-score. As for ACGGCCGC, the figure is -0.247 E-score; as for AAGTTGGA, 0.0478 E-score; as for ATTCCAAG, 0.205 E-score. CACAGCAG came in with a binding signal of -0.0173 E-score. Sequence AGACACTA showed a binding signal of -0.115 E-score. Regarding ACGTCCCA, the binding signal is -0.293 E-score. For ACCCGGAC, the binding signal is -0.228 E-score.

For the sequence AGCTTTAT, the binding signal is -0.0619 E-score. As for ACACAATA, the figure is 0.226 E-score; as for ATATACAC, 0.0924 E-score.

Values taken from publication PMC5836133.
